Hit rate of the full screen: of about 7,900 compounds, about 400 (5.1%) showed an effect of 50% or more. The list shows a part of the results.
biological target: Parkinson's disease protein 7 (PARK7/DJ1) (human, UniProt Q99497); assay: primary screen, percent inhibition; read as competition with a fluorescent probe by fluorescence polarization; higher = more effect of the substance; conditions: 100 µM
How it was run: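 Covalent fragments at 100 μM final were incubated 2 h with 0.2 μM PARK7, then 20 nM probe JYQ-107 added for a further 2 h. Fluorescence polarization read at 480/520 nm; relative FP loss versus reference controls gave remaining enzyme activity.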

Chain of Parkinson's disease protein 7 (PARK7/DJ1) (Q99497 whole entry, looked up, the tested form may be a part): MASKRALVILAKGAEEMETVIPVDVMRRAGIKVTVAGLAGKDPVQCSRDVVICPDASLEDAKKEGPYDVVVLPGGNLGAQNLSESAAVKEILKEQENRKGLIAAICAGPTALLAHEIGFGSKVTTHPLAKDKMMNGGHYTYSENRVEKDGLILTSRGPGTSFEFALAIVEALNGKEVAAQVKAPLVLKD

SMILES	Inhibition %
C=CC(=O)Nc1ccccc1	3.57%
CCCN1C(=O)CN=C1S	4.44%
O=C(CCl)N(C1CCCCC1)C1CCCCC1	4.3%
CC1(C)OB(c2cccc3c2CNC3=O)OC1(C)C	8.35%
Cc1c(C=CC(=O)c2ccc(O)cc2)cc(C#N)n1C	8.15%
Cc1csc(NC(=O)NC2CC(C)(C)OC2=O)n1 (centres unmarked)	9.18%
Cc1nc(C)c(C(=O)CCl)o1	95.2%
O=C1OCCC1Sc1nnc(-c2ccc(Cl)cc2)o1 (centres unmarked)	4.59%
CCCN1CCN(c2oc(-c3ccco3)nc2C#N)CC1	9.64%
Cc1nc(C(C#N)=Cc2ccnn2C)sc1C	16.2%
COCCOc1ccc2cc(B(O)O)ccc2c1	4.68%
C=CC(=O)N1CCC(CC#N)CC1	3.54%
CC1(C)OB(c2ccc(N)c(O)c2)OC1(C)C	92.7%
N#CC(=Cc1ccc(F)cc1)C(=O)N1CCCCC1	9.17%
O=C1CCC(=O)N1Cc1ccc(F)c2cccnc12	3.52%
C=CC(=O)NCc1nn(C)c2ccccc12	14%
C=CC(=O)Nc1ccc(C)c(F)c1	1.76%
Cn1ccnc1C(NC(=O)CCl)c1ccccc1 (centres unmarked)	-4.28%
CC=Cc1ccc(OCC2CO2)c(OC)c1 (centres unmarked)	9.03%
CC(C)C1NC(=O)C12CCOCC2 (centres unmarked)	5.86%
CC(=O)Nc1ccc(B2OC(C)(C)C(C)(C)O2)cn1	3.49%

SMILES	Inhibition %
C=CC(=O)NC1CCN(Cc2ccccc2)C1=O (centres unmarked)	9.78%
Cc1nn(S(=O)(=O)N2CCCCC2)c(C)c1C	11.1%
C=CC(=O)NCCc1noc2ccccc12	15.4%
C=CC(=O)NC1CCCCC1n1cccn1 (centres unmarked)	7.61%
N#CC(=Cc1cccs1)C(=O)Nc1ccc(C(=O)O)cc1	6.67%
O=C(O)c1nccnc1S	83.1%
CCOc1ccc(C(C)C)cc1S(=O)(=O)n1ccc(C)n1	1.74%
C=CC(=O)NC1CCC2(CC1)OCCO2	9.19%
C=CC(=O)N1CCCC(N2CCCC2=O)C1 (centres unmarked)	4.38%
C=CC(=O)NCC1CSCCS1 (centres unmarked)	9.78%
N#CC=C(Cl)c1ccc(F)cc1F	9.44%
CN(C)C(=O)Sc1cnc2nccn2c1	3.18%
COc1ccc(SCCN2C(=O)CCC2=O)cc1	7.03%
CC1(C)OB(c2cc(F)ccc2[N+](=O)[O-])OC1(C)C	6.19%
CN1CCN(c2cccc(C#N)n2)CC1	5.08%
N#Cc1c(N)nc2n1CCS2	4.18%
N#Cc1cc(C(=O)NCC2CCn3ccnc3C2)c[nH]1 (centres unmarked)	6.88%
CC(=O)c1ccc(S(=O)(=O)F)cc1	34.9%
COc1cc(C)c(Cl)cc1S(=O)(=O)n1cnc(C)c1	5.05%
C=CC(=O)N(C)C1CC(C(C)(C)C)C1 (centres unmarked)	7.25%
C=CC(=O)NC1CCCc2nn(C)cc21 (centres unmarked)	10.2%

SMILES	Inhibition %
Cc1ccoc1C(=O)Nc1cccc(S(=O)(=O)F)c1	7.02%
FC(F)(F)c1cccc(OCC2CO2)c1 (centres unmarked)	9.5%
C=CC(=O)N(C)c1ccccc1	2.77%
C=CC(=O)N1C[C@@H]2CCO[C@@H]2C1 (racemic)	7.04%
CCCNC(=O)C(C#N)=Cc1ccc(C(F)(F)F)[nH]1	2.8%
C=CC(=O)N1CCCC1c1ccc(COC)o1 (centres unmarked)	1.71%
CC1(C)OB(c2ccc(NS(C)(=O)=O)cc2)OC1(C)C	3.69%
CC(=O)NCc1ccc(C(=O)CCl)s1	91.1%
CNC(=O)CNS(=O)(=O)C=Cc1ccc(Cl)cc1	0.98%
O=C(CCl)c1cc(F)ccc1O	38.8%
O=S(=O)(F)c1ccccc1O	9.92%
CN(C)C(=O)Oc1cccc2cccnc12	4.58%
Sc1ccc(-c2ccco2)nn1	57.3%
CC1(C)OB(c2ccccc2N2CCOCC2)OC1(C)C	4.39%
O=C1OCCC1N1CCN(c2nccs2)CC1 (centres unmarked)	2.57%
Cc1cc(C)nc(-n2nc(C)cc2NC(=O)CCl)n1	8.57%
Cc1ccsc1C=C(C#N)C(=O)NCCN1CCOCC1	13.2%
C=CC(=O)NCC1CCOC2(CCC2)C1 (centres unmarked)	7.99%
CC(=O)Nc1ccc(C=C(C#N)c2ccccn2)cc1.Cl	19.4%
COCCN(C)c1ccnc(C#N)c1	1.89%

Reference: PMC9574860, “Chemical Toolkit for PARK7: Potent, Selective, and High-Throughput” (Journal of Medicinal Chemistry, 2022)
